From US10351915B2 (Berg LLC, priority 2009, dated 2019)

Columns and labels:
SK-MEL-28 cells [1] = test: Real-time PCR Diabetes Array; assay type: cell-based
Source text: (SABiosciences, Frederick, Md.).

SK-MEL-28 cells [2] = test: Real-time PCR Oxidative Stress and Antioxidant Defense Array; assay type: cell-based; conditions: 100 μM Q10, 16 hr
Procedure: Experimental details: […] (SABiosciences, Frederick, Md.). […] Further experiments were carried out using SKMEL-28 cells. […] The PCR array (SABiosciences) is a set of optimized real-time PCR primer assays on 96-well plates for pathway or disease focused genes as well as appropriate RNA quality controls. The PCR array performs gene expression analysis with real-time PCR sensitivity and the multi-gene profiling capability of a microarray.

SMILES: COC1=C(OC)C(=O)C(C/C=C(\C)CC/C=C(\C)CC/C=C(\C)CC/C=C(\C)CC/C=C(\C)CC/C=C(\C)CC/C=C(\C)CC/C=C(\C)CC/C=C(\C)CCC=C(C)C)=C(C)C1=O [Q10, Coenzyme Q10]
- VEGFA Regulation (SK-MEL-28 cells [1]; 100 μM Q10, after 58 hours ("then")): down
- ADRB3 Regulation (SK-MEL-28 cells [1]; 100 μM Q10, at 48 hours): Down Regulated at
- CEACAM1 Regulation (SK-MEL-28 cells [1]; 100 μM Q10, at 48 hours): Down Regulated at
- CEBPA Regulation (SK-MEL-28 cells [1]; 100 μM Q10, at 48 hours): Up regulated at 48
- CTLA4 Regulation (SK-MEL-28 cells [1]; 100 μM Q10, at 48 hours): Down Regulated at
- DUSP4 Regulation (SK-MEL-28 cells [1]; 100 μM Q10, at 48 hours): Down Regulated at
- ENPP1 Regulation (SK-MEL-28 cells [1]; 100 μM Q10, at 48 hours): Down Regulated at
- FOXC2 Regulation (SK-MEL-28 cells [1]; 100 μM Q10, at 48 hours): Down Regulated at
- G6PD Regulation (SK-MEL-28 cells [1]; 100 μM Q10, at 48 hours): Up regulated at 48
- HMOX1 Regulation (SK-MEL-28 cells [1]; 100 μM Q10, at 48 hours): Down Regulated at
- ICAM1 Regulation (SK-MEL-28 cells [1]; 100 μM Q10, at 48 hours): Down Regulated at
- IL4R Regulation (SK-MEL-28 cells [1]; 100 μM Q10, at 48 hours): Down Regulated at
- IRS2 Regulation (SK-MEL-28 cells [1]; 100 μM Q10, at 48 hours): Down Regulated at
- NKX2-1 Regulation (SK-MEL-28 cells [1]; 100 μM Q10, at 48 hours): Down Regulated at
- NSF Regulation (SK-MEL-28 cells [1]; 100 μM Q10, at 48 hours): Down Regulated at
- PIK3CD Regulation (SK-MEL-28 cells [1]; 100 μM Q10, at 48 hours): Down Regulated at
- PPARG Regulation (SK-MEL-28 cells [1]; 100 μM Q10, at 48 hours): Down Regulated at
- PRKCB1 Regulation (SK-MEL-28 cells [1]; 100 μM Q10, at 48 hours): Down Regulated at
- SELL Regulation (SK-MEL-28 cells [1]; 100 μM Q10, at 48 hours): Down Regulated at
- STXBP1 Regulation (SK-MEL-28 cells [1]; 100 μM Q10, at 48 hours): Down Regulated at
- TNF Regulation (SK-MEL-28 cells [1]; 100 μM Q10, at 48 hours): Up regulated at 48
- VEGFA Regulation (SK-MEL-28 cells [1]; 100 μM Q10, at 58 hours): Up regulated at 58
- TNFRSF1A Regulation (SK-MEL-28 cells [1]; 100 μM Q10, at 72 hours): Down Regulated at
- expression of HNF4A (SK-MEL-28 cells [1]; cells following Q10 treatment): upmodulated
- NCF1 mRNA level change (SK-MEL-28 cells [2]): high
